Reference: patent US8415310B2, “Isoxazoline derivatives as antiparasitic agents” (AH USA 42 LLC, priority 2010, dated 2013)
Some results were stated once for a whole list of compounds, not compound by compound.

Tested on: Ctenocephalides felis
Test: Flea (Ctenocephalides felis) Membrane Feed Assay-Adult
Assay type: in vivo
Settings: adult fleas fed on treated citrated bovine blood approximately 2 hours; knockdown and/or death at approximately 2 and 24 hours
Method: Flea (Ctenocephalides felis) Membrane Feed Assay-Adult
Comparative Data: Flea Feed Assay
Comparator compounds T1 and T2 were tested in the flea feed assay, as described above, and are compared to Examples 39 and 43, respectively. The compounds T1 (WO2008/122375) and T2 (US2009/0156643) represent the closet exemplified art. The data represents the 24 hour time period. Endpoint data were recorded as an lethal dose 90% (LD^90) in μg/mL. […] Comparator compounds T1 and T2 both had LD^90 values of >30 […].

Row | Structure (SMILES) | lethal dose 90% (LD^90)
1 | CCC(=O)N1CC(c2ccc(C3=NOC(c4cc(Cl)c(Cl)c(Cl)c4)(C(F)(F)F)C3)cc2)C1 (centres unmarked) [Example 124, 3-[4-(1-propionylazetidin-3-yl)phenyl]-5-(3,4,5-trichlorophenyl)-5-(trifluoromethyl)-4,5-dihydroisoxazole] | ≤ 1 µg/mL
2 | CSCC(=O)N1CC(c2ccc(C3=NOC(c4cc(Cl)c(Cl)c(Cl)c4)(C(F)(F)F)C3)cc2)C1 (centres unmarked) [Example 125, 3-(4-{1-[(methylthio)acetyl]azetidin-3-yl}phenyl)-5-(3,4,5-trichlorophenyl)-5-(trifluoromethyl)-4,5-dihydroisoxazole] | ≤ 1 µg/mL
3 | COCC(=O)N1CC(c2ccc(C3=NOC(c4cc(Cl)c(Cl)c(Cl)c4)(C(F)(F)F)C3)cc2)C1 (centres unmarked) [Example 126, 3-{4-[1-(methoxyacetyl)azetidin-3-yl]phenyl}-5-(3,4,5-trichlorophenyl)-5-(trifluoromethyl)-4,5-dihydroisoxazole] | ≤ 1 µg/mL
4 | O=C(CC1CC1)N1CC(c2ccc(C3=NOC(c4cc(Cl)c(Cl)c(Cl)c4)(C(F)(F)F)C3)cc2)C1 (centres unmarked) [Example 127, 3-{4-[1-(cyclopropylacetyl)azetidin-3-yl]phenyl}-5-(3,4,5-trichlorophenyl)-5-(trifluoromethyl)-4,5-dihydroisoxazole] | ≤ 3 µg/mL
5 | CSCC(=O)N1CC(c2ccc(C3=NOC(c4cc(Cl)c(F)c(Cl)c4)(C(F)(F)F)C3)cc2)C1 (centres unmarked) [Example 128, 5-(3,5-dichloro-4-fluorophenyl)-3-(4-{1-[(methylthio)acetyl]azetidin-3-yl}phenyl)-5-(trifluoromethyl)-4,5-dihydroisoxazole] | ≤ 1 µg/mL
6 | COCC(=O)N1CC(c2ccc(C3=NOC(c4cc(Cl)c(F)c(Cl)c4)(C(F)(F)F)C3)cc2)C1 (centres unmarked) [Example 129, 5-(3,5-dichloro-4-fluorophenyl)-3-{4-[1-(methoxyacetyl)azetidin-3-yl]phenyl}-5-(trifluoromethyl)-4,5-dihydroisoxazole] | ≤ 1 µg/mL
7 | O=C(N1CC(c2ccc(C3=NOC(c4cc(Cl)c(F)c(Cl)c4)(C(F)(F)F)C3)cc2)C1)C1(O)CC1 (centres unmarked) [Example 130, 1-[(3-{4-[5-(3,5-dichloro-4-fluorophenyl)-5-(trifluoromethyl)-4,5-dihydroisoxazol-3-yl]phenyl}azetidin-1-yl)carbonyl]cyclopropanol] | ≤ 1 µg/mL
8 | CCC(=O)N1CC(c2ccc(C3=NOC(c4cc(Cl)c(F)c(Cl)c4)(C(F)(F)F)C3)cc2)C1 (centres unmarked) [Example 131, 5-(3,5-dichloro-4-fluorophenyl)-3-[4-(1-propionylazetidin-3-yl)phenyl]-5-(trifluoromethyl)-4,5-dihydroisoxazole] | ≤ 0.3 µg/mL
9 | CC(C)C(=O)N1CC(c2ccc(C3=NOC(c4cc(Cl)c(F)c(Cl)c4)(C(F)(F)F)C3)cc2)C1 (centres unmarked) [Example 132, 5-(3,5-dichloro-4-fluorophenyl)-3-[4-(1-isobutyrylazetidin-3-yl)phenyl]-5-(trifluoromethyl)-4,5-dihydroisoxazole] | ≤ 1 µg/mL
10 | O=C(CC(F)(F)F)N1CC(O)(c2ccc(C3=NOC(c4cc(Cl)c(F)c(Cl)c4)(C(F)(F)F)C3)cc2)C1 (centres unmarked) [Example 134, 3-{4-[5-(3,5-dichloro-4-fluorophenyl)-5-(trifluoromethyl)-4,5-dihydroisoxazol-3-yl]phenyl}-1-(3,3,3-trifluoropropanoyl)azetidin-3-ol] | ≤ 3 µg/mL
11 | Cc1ncoc1C(=O)N1CC(F)(c2ccc(C3=NOC(c4cc(Cl)c(F)c(Cl)c4)(C(F)(F)F)C3)cc2)C1 (centres unmarked) [Example 136, 5-(3,5-dichloro-4-fluorophenyl)-3-(4-{3-fluoro-1-[(4-methyl-1,3-oxazol-5-yl)carbonyl]azetidin-3-yl}phenyl)-5-(trifluoromethyl)-4,5-dihydroisoxazole] | ≤ 3 µg/mL
12 | O=C(Cn1cncn1)N1CC(F)(c2ccc(C3=NOC(c4cc(Cl)c(F)c(Cl)c4)(C(F)(F)F)C3)cc2)C1 (centres unmarked) [Example 139, 1-[2-(3-{4-[5-(3,5-dichloro-4-fluorophenyl)-5-(trifluoromethyl)-4,5-dihydroisoxazol-3-yl]phenyl}-3-fluoroazetidin-1-yl)-2-oxoethyl]-1H-1,2,4-triazole] | ≤ 3 µg/mL
13 | O=C(c1cnco1)N1CC(F)(c2ccc(C3=NOC(c4cc(Cl)c(F)c(Cl)c4)(C(F)(F)F)C3)cc2)C1 (centres unmarked) [Example 142, 5-(3,5-dichloro-4-fluorophenyl)-3-{-4-[3-fluoro-1-(1,3-oxazol-5-ylcarbonyl)azetidin-3-yl]phenyl}-5-(trifluoromethyl)-4,5-dihydroisoxazole] | ≤ 3 µg/mL
14 | CC(F)(F)C(=O)N1CC(F)(c2ccc(C3=NOC(c4cc(Cl)c(F)c(Cl)c4)(C(F)(F)F)C3)cc2)C1 (centres unmarked) [Example 143, 5-(3,5-dichloro-4-fluorophenyl)-3-{4-[1-(2,2-difluoropropanoyl)-3-fluoroazetidin-3-yl]phenyl}-5-(trifluoromethyl)-4,5-dihydroisoxazole] | ≤ 3 µg/mL
15 | O=C(N1CC(O)C1)N1CC(F)(c2ccc(C3=NOC(c4cc(Cl)c(Cl)c(C(F)(F)F)c4)(C(F)(F)F)C3)cc2)C1 (centres unmarked) [Example 144, 1-{[3-(4-{5-[3,4-dichloro-5-(trifluoromethyl)phenyl]-5-(trifluoromethyl)-4,5-dihydroisoxazol-3-yl}phenyl)-3-fluoroazetidin-1-yl]carbonyl}azetidin-3-ol] | ≤ 3 µg/mL
16 | C[C@H](O)CC(=O)N1CC(F)(c2ccc(C3=NOC(c4cc(Cl)c(F)c(Cl)c4)(C(F)(F)F)C3)cc2)C1 (stereo partly drawn) [Example 152, (2S)-4-(3-{-4-[5-(3,5-dichloro-4-fluorophenyl)-5-(trifluoromethyl)-4,5-dihydroisoxazol-3-yl]phenyl}-3-fluoroazetidin-1-yl)-4-oxobutan-2-ol] | ≤ 1 µg/mL
17 | CC(O)CC(=O)N1CC(F)(c2ccc(C3=NOC(c4cc(Cl)c(F)c(Cl)c4)(C(F)(F)F)C3)cc2)C1 (centres unmarked) [Example 153, 4-(3-{4-[5-(3,5-dichloro-4-fluorophenyl)-5-(trifluoromethyl)-4,5-dihydroisoxazol-3-yl]phenyl}-3-fluoroazetidin-1-yl)-4-oxobutan-2-ol] | ≤ 1 µg/mL
18 | C[C@H](O)CC(=O)N1CC(F)(c2ccc(C3=NOC(c4cc(Cl)c(F)c(Cl)c4)(C(F)(F)F)C3)cc2)C1 (stereo partly drawn) [Example 161, (2S)-4-(3-{4-[5-(3,5-dichloro-4-fluorophenyl)-5-(trifluoromethyl)-4,5-dihydroisoxazol-3-yl]phenyl}-3-fluoroazetidin-1-yl)-4-oxobutan-2-ol] | ≤ 0.3 µg/mL
19 | CCC(=O)N1CC(N=[N+]=[N-])(c2ccc(C3=NOC(c4cc(Cl)c(Cl)c(Cl)c4)(C(F)(F)F)C3)cc2)C1 (centres unmarked) [Example 164, 3-[4-(3-azido-1-propionylazetidin-3-yl)phenyl]-5-(3,4,5-trichlorophenyl)-5-(trifluoromethyl)-4,5-dihydroisoxazole] | ≤ 1 µg/mL
20 | O=C(N1CCC1)N1CC(F)(c2ccc(C3=NOC(c4cc(Cl)cc(Cl)c4)(C(F)(F)F)C3)cc2)C1 (centres unmarked) [Example 173, 3-{4[1-(azetidin-1-ylcarbonyl)-3-fluoroazetidin-3-yl]phenyl}-5-(3,5-dichlorophenyl)-5-(trifluoromethyl)-4,5-dihydroisoxazole] | ≤ 1 µg/mL
